{"source": "paper PMC12136788", "binders": {"B1": {"name": "chr3:9412954:9412955:+_ENSG00000134077_ENST00000452837|hu_mus|hu_hu_hu_mus_False|18_108 (ssRNA)", "RNA": "GGGAGUUCUACAGUCCGACGAUCGGUUGAUACAUCCUCUUUGAUGGCUGGAUUUUCAUAAUAGUCCAAGAUAUGUGAAUCUGAAGUGCUGCUGGCAUGCUUUUUCUUACCAUCUUUCUGAUCGAUUUUGUCUCCUUGUCCACACAACAGAGGAUUGAGCAUCA"}, "B2": {"name": "chr4:140556289:140556290:+_ENSMUSG00000036622_ENSMUST00000037055|mus_mus|mus_mus_mus_hu_False|58_78 (ssRNA)", "RNA": "GGGAGUUCUACAGUCCGACGAUCGAUGGAGCUCACCAGGCCCCCUUUUGCCGUGCAGAACCCUGUCCGGGUCACCACUGCUAGCACGUGCGGUCCCACAUAGGCCCGGGCCUGCAAGAUGAGGGUCCCGCAGAAGAGUGUGUGCAACAGAGGAUUGAGCAUCA"}, "B3": {"name": "102151997_102154889_5144_CDS_ENSMUSG00000021182_ENSMUST00000068411|mouse|control|control (ssRNA)", "RNA": "GGGAGUUCUACAGUCCGACGAUCACGGCAGCUGGGAGUAUCAUGGGUAGGAGAGCCUCCUCGGUUACUCUCCUCUAAAAAUUCCUCCAAGGUGACCAUCUCACUGCUGGGAGAGGCUGAGUGGGGUCGCACUCCCGUGUGGGUCAACAGAGGAUUGAGCAUCA"}, "B4": {"name": "chr17:56739783:56739784:+_ENSMUSG00000071054_ENSMUST00000095224|mus_mus|motif|central (ssRNA)", "RNA": "GGGAGUUCUACAGUCCGACGAUCAUAUCUGCUAAACAGGUUCUUCAGAUCCGUGGCUCUGGUUGUAGACGAAAGGCCACGGACCCAGAAAUUCCUACCACAGCUGCUGCGACCCUUCUCUUCUCGGGAAAGCCUUUUUGUAUCCAACAGAGGAUUGAGCAUCA"}, "B5": {"name": "chr2:39278355:39278356:-_ENSG00000115904_ENST00000402219|hu_hu|motif|central (ssRNA)", "RNA": "GGGAGUUCUACAGUCCGACGAUCGCAGCUUCCUACUAGUGGAUGGGGACUGCCUUCAUCUGUCAUUUCUACUGUAUCUUCGGUAUGGCCCAGUAACUUUACACUAAGUUCAUGUAUAUCUACUAUGCGACUAAAUAUAUUUUCCAACAGAGGAUUGAGCAUCA"}, "B6": {"name": "chr10:73576327:73576328:-_ENSG00000197746_ENST00000394936|hu_hu|motif|central (ssRNA)", "RNA": "GGGAGUUCUACAGUCCGACGAUCGCCAGAGGCCUAGGAGCUCGCCAUCCAUAUUUAUUUGAAAAGGUCAAAAGGAGCAUCGGUGAGACAAGGGAGGGGUGCAGGCUGAAGCAGCGCCUCAACAGCCAGGGACAUGUAGGCAACCAACAGAGGAUUGAGCAUCA"}, "B7": {"name": "chr11:86503612:86503613:+_ENSMUSG00000072582_ENSMUST00000108022|mus_mus|FALSE|FALSE (ssRNA)", "RNA": "GGGAGUUCUACAGUCCGACGAUCUUACUGACAGGCUCCAUAGUCUUCGGACAGAAUCUCCAUCAAGCAAAAGCUUAUCUAGUAAAGUUUUAGGUGGCCAGUAACUUCAUCAAUUAGUUCUACUGGUCCUGGCCCAAUUCCCAGCAACAGAGGAUUGAGCAUCA"}, "B8": {"name": "chr9:31209820:31209821:+_ENSMUSG00000042185_ENSMUST00000086167|mus_hu|FALSE|FALSE (ssRNA)", "RNA": "GGGAGUUCUACAGUCCGACGAUCUUCUUGCUUACAGAAGGCCUGAUCUUUGGUCUCUAGCCAUAGCUGGAAGAGGGCAGCUAAUUCCUUUUCAUUAUCUUGGGAUUGGCCAAGCAACUUCCACUGCUGGGUUUUCUCUUUGAACAACAGAGGAUUGAGCAUCA"}, "B9": {"name": "chr2:179515052:179515053:+_ENSMUSG00000000305_ENSMUST00000000314|mus_hu|mus_mus_mus_hu_False|28_88 (ssRNA)", "RNA": "GGGAGUUCUACAGUCCGACGAUCGCUGUCCCAUGCAGUCACCGUGAAGGCCACCUGCUCGGAGGGGACCUGCAGCUCCCGGGUGGCGAAGACUGUCCCAUCUGCCCCGACUUUGAAGUCCAUGCUGUUGGUCUCAUAUUGUGUCAACAGAGGAUUGAGCAUCA"}, "B10": {"name": "chr1:230810825:230810826:+_ENSG00000135775_ENST00000366669|hu_mus|motif|central (ssRNA)", "RNA": "GGGAGUUCUACAGUCCGACGAUCUUUCUGGUGAAAGGCGUCUGGGUCCCCAGGGUUGAAGAGCGAGGGUAGCUUUUCCUCGGGGCCUCGAACUAUUUCUGGCCACACAGAAUUCACCAAGAAAUCAUAGCCAGGAACGAUAGUCAACAGAGGAUUGAGCAUCA"}, "B11": {"name": "chr3:148802587:148802588:-_ENSG00000071794_ENST00000310053|hu_mus|hu_hu_hu_mus_False|38_58 (ssRNA)", "RNA": "GGGAGUUCUACAGUCCGACGAUCUCCAACAACUUGUCCUCUCAUAGUUCCAAAUAAAACCAAAUCUUGCUCUUCAUCACUAGUUAGGAAGUCAUCUGGAGGGAUAAUGUCUUGGAAUUCAAAAUGUGGCAAGAAAGUUGAGUACAACAGAGGAUUGAGCAUCA"}, "B12": {"name": "chr6:114281168:114281169:-_ENSG00000196591_ENST00000368632|hu_hu|hu_hu_hu_mus_True|8_8 (ssRNA)", "RNA": "GGGAGUUCUACAGUCCGACGAUCUUCCAUUUUUCGGUAUAAACCAUAAUUUAGCAGCAAGUUAUGAGUCAUCCGGAUUCUAUGAGGCUUCAUGGGAUGACCCUGGCCAUAAUAAUAAUUGCCAAUAUCACAGAUUCAGUAGUACAACAGAGGAUUGAGCAUCA"}, "B13": {"name": "chr9:91930108:91930109:+_ENSG00000123975_ENST00000314355|hu_mus|FALSE|FALSE (ssRNA)", "RNA": "GGGAGUUCUACAGUCCGACGAUCACCAAGUCUCCUCCACUCCUCUUCGGACAUCAGAUGAGUUUUGGGUACUUGUUUAGAGAGUUCUCUGGGUAACAUGACAUGCCGGUACUCGUAGUGCUCAUCGAAGUACUUGUCUGAGUACAACAGAGGAUUGAGCAUCA"}, "B14": {"name": "chr7:138189096:138189097:+_ENSG00000122779_ENST00000415680|hu_hu|motif|central (ssRNA)", "RNA": "GGGAGUUCUACAGUCCGACGAUCUGACUUUUCUACUGUACUGCUGGGAACCUCAGUAGUGUCCUUCACAAAAAAGUUAUCGGUGAUGUGUCUCUCUGCACAUUCUUGGCUGCAAACUGGGCAACGAAUGACUCCAACUUGGGUCAACAGAGGAUUGAGCAUCA"}}, "note": "The list shows a part of the results."}
{"molecular_target": "T1, UNK ZnF1-3 (human, UniProt Q9C0B0 31-174)", "T1 sequence": "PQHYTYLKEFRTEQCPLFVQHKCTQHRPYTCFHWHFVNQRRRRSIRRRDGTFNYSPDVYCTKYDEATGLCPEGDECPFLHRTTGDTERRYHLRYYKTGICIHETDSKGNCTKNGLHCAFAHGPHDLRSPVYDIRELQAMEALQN", "assay": "nsRBNS (natural sequence RNA bind-n-seq); RBNS binding buffer (assumed for nsRBNS): 25 mM Tris pH 7.5, 150 mM KCl, 3 mM MgCl2, 0.01% Triton X-100, 500 ug/ml BSA, 20 U/ml SUPERase-In, 4 C; UNK is unkempt and MSI1 is Musashi-1; names of the RNAs are library labels; protein concentration not given here; high values mean tight binding", "units": {"binding signal": "enrichment R"}}
{"binder": "B1", "binding signal": 0.554}
{"binder": "B2", "binding signal": 1.16}
{"binder": "B3", "binding signal": 0.891}
{"binder": "B4", "binding signal": 0.711}
{"binder": "B5", "binding signal": 0.543}
{"binder": "B6", "binding signal": 2.45}
{"binder": "B7", "binding signal": 1.52}
{"binder": "B8", "binding signal": 0.541}
{"binder": "B9", "binding signal": 0.878}
{"binder": "B10", "binding signal": 0.646}
{"binder": "B11", "binding signal": 1.24}
{"binder": "B12", "binding signal": 0.891}
{"binder": "B13", "binding signal": 0.306}
{"binder": "B14", "binding signal": 0.771}
